The test system of one assay is OVCAR4. Kind of assay: log2 surviving fraction (library drug vs vehicle, or drug + carboplatin vs carboplatin alone; relative to plate median); ovarian cancer lines: OVCAR4 is platinum-sensitive and Ov4Carbo platinum-resistant; higher = more cell survival. The note with it: library drug concentration 10 µM, 7 days.
The subject of a further assay is Ov4Carbo. The description is as above. To be noted: library drug concentration 10 µM, 7 days.

The values that follow come from the supplement of paper PMC8047034.

Some of the results follow. Most values come without repeats; read them as rough.

Regarding `O=c1ccn([C@@H]2O[C@H](CO)[C@@H](O)[C@H]2O)c(=O)[nH]1` [Uridine], the log2 surviving fraction with OVCAR4 (carboplatin co-treatment 0 µM) was -0.831; with OVCAR4 (carboplatin co-treatment 5 µM), -0.377; with Ov4Carbo (carboplatin co-treatment 0 µM) it was -0.216; with Ov4Carbo (carboplatin co-treatment 5 µM), -0.226.
As for `CCC(=O)OCC(=O)[C@@]1(OC(=O)CC)[C@@H](C)C[C@H]2[C@@H]3CCC4=CC(=O)C=C[C@]4(C)[C@@]3(Cl)[C@@H](O)C[C@@]21C` [Beclomethasone dipropionate], the log2 surviving fraction in the assay on OVCAR4 (carboplatin co-treatment 0 µM) is 0.00216; in the assay on OVCAR4 (carboplatin co-treatment 5 µM) it was -1.12; in the assay with Ov4Carbo (carboplatin co-treatment 0 µM), 0.41; in the assay with Ov4Carbo (carboplatin co-treatment 5 µM), 1.08.
For `CC1=C(/C=C/C(C)=C/C=C/C(C)=C/C(=O)O)C(C)(C)CCC1` [Tretinoin (Aberela)] the same measures were -0.0128, -0.339, -1.1 and -0.487.
`CC1(C)S[C@@H]2[C@H](NC(=O)[C@H](NC(=O)N3CCN(S(C)(=O)=O)C3=O)c3ccccc3)C(=O)N2[C@H]1C(=O)O` [Mezlocillin Sodium]: the log2 surviving fraction in the assay with OVCAR4 (carboplatin co-treatment 0 µM) is 0.00397; in the assay on OVCAR4 (carboplatin co-treatment 5 µM), -0.125; in the assay on Ov4Carbo (carboplatin co-treatment 0 µM) it was 0.798; in the assay on Ov4Carbo (carboplatin co-treatment 5 µM), -0.585.
For `CCOc1ccc2ccccc2c1C(=O)N[C@@H]1C(=O)N2[C@@H]1SC(C)(C)[C@@H]2C(=O)O` [nafcillin sodium monohydrate], in that order: 0.297, 0.947, 0.0814 and 0.235.
For `CCOc1ccc(NC(C)=O)cc1` [Phenacetin], in that order: -0.169, 0.494, 0.21 and 0.194.
`CO[C@H]1/C=C/O[C@@]2(C)Oc3c(C)c(O)c4c(c3C2=O)C2=NC3(CCN(CC(C)C)CC3)NC2=C(NC(=O)/C(C)=C\C=C\[C@H](C)[C@H](O)[C@@H](C)[C@@H](O)[C@@H](C)[C@H](OC(C)=O)[C@@H]1C)C4=O` [Rifabutin (Mycobutin)]: the log2 surviving fraction is -4.24 in the assay with OVCAR4 (carboplatin co-treatment 0 µM), -0.482 in the assay on OVCAR4 (carboplatin co-treatment 5 µM), -0.962 in the assay on Ov4Carbo (carboplatin co-treatment 0 µM) and -1.14 in the assay on Ov4Carbo (carboplatin co-treatment 5 µM).
